Experimental data taken from article PMC3243670.
These are yes or no findings as the source states them, for the method shown. Binding seen in cells or lysates may run through a third protein. Some binding calls cover weakened binding; strength is not graded here. Sequences can lack the tags named with a protein.

The chains behind the UniProt entries cited, without tags or fusion partners.
UniProt Q12834: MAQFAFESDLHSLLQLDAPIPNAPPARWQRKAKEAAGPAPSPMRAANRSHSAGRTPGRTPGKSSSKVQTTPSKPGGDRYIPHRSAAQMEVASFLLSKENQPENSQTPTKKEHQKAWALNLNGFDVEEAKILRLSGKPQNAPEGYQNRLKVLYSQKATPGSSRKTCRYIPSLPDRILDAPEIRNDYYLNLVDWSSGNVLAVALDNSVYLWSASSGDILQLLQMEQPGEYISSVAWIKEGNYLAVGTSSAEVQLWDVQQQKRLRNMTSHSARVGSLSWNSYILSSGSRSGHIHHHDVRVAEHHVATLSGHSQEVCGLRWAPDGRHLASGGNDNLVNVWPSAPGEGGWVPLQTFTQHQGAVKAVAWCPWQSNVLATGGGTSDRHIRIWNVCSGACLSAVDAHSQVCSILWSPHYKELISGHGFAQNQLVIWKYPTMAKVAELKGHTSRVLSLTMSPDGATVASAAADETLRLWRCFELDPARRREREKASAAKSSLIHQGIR
UniProt Q9UM11: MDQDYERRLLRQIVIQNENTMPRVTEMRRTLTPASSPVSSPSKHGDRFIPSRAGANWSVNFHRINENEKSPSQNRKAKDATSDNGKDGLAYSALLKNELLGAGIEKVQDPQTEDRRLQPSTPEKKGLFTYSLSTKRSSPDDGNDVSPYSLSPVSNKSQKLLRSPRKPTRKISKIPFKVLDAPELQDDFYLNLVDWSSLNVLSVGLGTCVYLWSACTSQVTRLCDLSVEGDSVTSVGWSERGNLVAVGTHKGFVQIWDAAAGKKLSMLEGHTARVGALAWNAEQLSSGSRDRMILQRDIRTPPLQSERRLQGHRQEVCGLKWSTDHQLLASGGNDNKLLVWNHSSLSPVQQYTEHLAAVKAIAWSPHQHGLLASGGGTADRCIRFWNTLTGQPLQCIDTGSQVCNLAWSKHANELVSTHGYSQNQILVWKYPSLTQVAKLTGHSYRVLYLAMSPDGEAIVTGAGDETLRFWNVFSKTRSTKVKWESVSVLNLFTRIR
UniProt P63208: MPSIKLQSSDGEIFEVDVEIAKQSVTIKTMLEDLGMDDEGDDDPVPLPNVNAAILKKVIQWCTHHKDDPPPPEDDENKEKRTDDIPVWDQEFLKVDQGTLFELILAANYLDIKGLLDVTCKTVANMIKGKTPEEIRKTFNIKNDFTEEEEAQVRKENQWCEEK

T1: Flag-NIPA (Nuclear Interaction Partner of Alk kinase), wild type (human) (UniProt Q86WB0)
T1 sequence: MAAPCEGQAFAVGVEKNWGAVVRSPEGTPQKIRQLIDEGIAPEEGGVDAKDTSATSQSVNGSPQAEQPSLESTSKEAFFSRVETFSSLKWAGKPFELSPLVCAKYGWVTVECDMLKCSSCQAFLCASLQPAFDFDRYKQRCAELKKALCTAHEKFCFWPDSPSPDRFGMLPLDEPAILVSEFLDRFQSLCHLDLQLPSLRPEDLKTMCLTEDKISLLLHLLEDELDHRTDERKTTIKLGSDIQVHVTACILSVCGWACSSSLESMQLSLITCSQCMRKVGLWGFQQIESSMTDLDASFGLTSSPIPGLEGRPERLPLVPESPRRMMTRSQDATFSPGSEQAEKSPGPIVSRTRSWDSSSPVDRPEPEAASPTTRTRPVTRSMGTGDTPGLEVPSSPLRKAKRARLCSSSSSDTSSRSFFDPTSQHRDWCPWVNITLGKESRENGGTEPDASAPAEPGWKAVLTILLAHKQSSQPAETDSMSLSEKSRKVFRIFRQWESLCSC

T2: GST-NIPA wt (human) (UniProt Q86WB0)
T2 sequence: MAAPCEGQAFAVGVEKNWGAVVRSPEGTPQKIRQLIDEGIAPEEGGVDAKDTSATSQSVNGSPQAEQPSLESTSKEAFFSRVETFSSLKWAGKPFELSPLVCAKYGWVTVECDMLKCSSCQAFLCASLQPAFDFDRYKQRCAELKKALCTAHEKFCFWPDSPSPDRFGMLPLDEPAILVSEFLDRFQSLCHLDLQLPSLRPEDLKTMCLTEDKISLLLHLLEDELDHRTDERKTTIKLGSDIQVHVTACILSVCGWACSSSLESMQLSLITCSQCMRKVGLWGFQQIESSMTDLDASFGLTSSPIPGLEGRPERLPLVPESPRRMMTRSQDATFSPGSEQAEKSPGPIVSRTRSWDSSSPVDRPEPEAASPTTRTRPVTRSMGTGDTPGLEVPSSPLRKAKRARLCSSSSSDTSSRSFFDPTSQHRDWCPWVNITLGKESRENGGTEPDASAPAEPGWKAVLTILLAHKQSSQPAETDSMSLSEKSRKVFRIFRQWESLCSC


Legend:
[1] = molecular target: T1, Flag-NIPA (Nuclear Interaction Partner of Alk kinase), wild type (human); test: co-IP; Flag-NIPA co-expressed with HA-Cdh1 or HA-Cdc20 in HEK293T cells, MG132 added 6 h before collection; extracts immunoprecipitated with an antibody against Flag
[2] = molecular target: T1, Flag-NIPA (Nuclear Interaction Partner of Alk kinase), wild type (human); test: co-IP; HA-Cdh1 co-expressed with Flag-NIPA, with or without overexpressed Skp1, in HEK293T cells; extracts immunoprecipitated with an antibody against Flag
[3] = molecular target: T2, GST-NIPA wt (human); test: pull-down; 30 ul in vitro translated 35S-labeled Cdh1 incubated with glutathione beads with bound GST-NIPA; 10 mM Tris/HCl pH 7.5, 100 mM NaCl, 5 mM EDTA, 0.1% Triton X-100, 1 h at 4°C; SDS-PAGE and autoradiography; only the target purified
[4] = molecular target: HA-Cdc20 (UniProt Q12834); test: co-IP; Myc-NIPA co-expressed with HA-Cdh1 or HA-Cdc20 in HEK293T cells, MG132 added 6 h before collection; extracts immunoprecipitated with an antibody against HA-tag
[5] = molecular target: HA-Cdh1 (UniProt Q9UM11); test: as above

| binding [1] | binding [2] | Molecule | also measured |
| --- | --- | --- | --- |
| no binding |  | HA-Cdc20 (from UniProt Q12834 1-499) |  |
| binds | binds | HA-Cdh1 (from UniProt Q9UM11 1-496) |  |
|  | binds | Skp1 (from UniProt P63208 1-163) |  |
|  |  | in vitro translated, 35S-labeled Cdh1 (from UniProt Q9UM11 1-496) | binding [3]: binds |
|  |  | Myc-NIPA (protein, UniProt Q86WB0 1-502) MAAPCEGQAFAVGVEKNWGAVVRSPEGTPQKIRQLIDEGIAPEEGGVDAKDTSATSQSVNGSPQAEQPSLESTSKEAFFSRVETFSSLKWAGKPFELSPLVCAKYGWVTVECDMLKCSSCQAFLCASLQPAFDFDRYKQRCAELKKALCTAHEKFCFWPDSPSPDRFGMLPLDEPAILVSEFLDRFQSLCHLDLQLPSLRPEDLKTMCLTEDKISLLLHLLEDELDHRTDERKTTIKLGSDIQVHVTACILSVCGWACSSSLESMQLSLITCSQCMRKVGLWGFQQIESSMTDLDASFGLTSSPIPGLEGRPERLPLVPESPRRMMTRSQDATFSPGSEQAEKSPGPIVSRTRSWDSSSPVDRPEPEAASPTTRTRPVTRSMGTGDTPGLEVPSSPLRKAKRARLCSSSSSDTSSRSFFDPTSQHRDWCPWVNITLGKESRENGGTEPDASAPAEPGWKAVLTILLAHKQSSQPAETDSMSLSEKSRKVFRIFRQWESLCSC | binding [4]: no binding; binding [5]: binds |
